Results reported in ChEMBL document CHEMBL1157539, “Thousands of chemical starting points for antimalarial lead identification” (Nature, 2010).
The full ranking holds about 13,000 compounds; the median of “IFI” is about 4, and the highest 2% start at about 17. Some of the results follow.

Assay: GSK_TCMDC: Inhibition Frequency Index (IFI). The number of non-kinase HTS assays where a compound showed > 50 % inhibition, expressed as a percentage of the number of such assays in which the compound was tested (-0 is zero)
Type: functional

| Structure (SMILES) | IFI [%] |
| --- | --- |
| Cc1cccc2nc(-c3cccc(-c4ccc(C(=O)N5CCCCC5C(C)O)cc4)c3)[nH]c12 (configuration not stated) | 6.54 |
| CS(=O)(=O)N1CC2(CCN(CCC(NC(=O)NCc3ccccc3Cl)c3ccc(Cl)c(Cl)c3)CC2)c2ccccc21 (configuration not stated) | 7.53 |
| COc1ccc(CN(C)CCCc2ccc(NC(=O)c3cccc4c(O)c5ccccc5nc34)cc2)cc1OC | 3.13 |
| CN(CCON1C(=N)N=C(N)NC1(C)C)c1ccccc1 | 4.96 |
| Cc1nnsc1C(=O)Nc1ccc(-c2cccc(-c3nc4cccc(C)c4[nH]3)c2)cc1 | 6.19 |
| Cc1cccc2nc(-c3ccc(-c4cccc(CNCCCN5CCCC5=O)c4)s3)[nH]c12 | 3.81 |
| Cc1cnn(-c2cccc(C(=O)NC3CCC(CCN4CCc5ccc(C#N)cc5CC4)CC3)c2)c1 (configuration not stated) | 3.03 |
| Cc1ccc(-n2nc(-c3ccccc3)c3cc(C(=O)NCCN)sc32)cc1 | 9.52 |
| CCOc1ccc2[nH]c(C)cc(=NN=Cc3ccccc3)c2c1 | 1.53 |
| NC(=O)C1CCN(Cc2ccc(-c3ccc(-c4nc5cc(F)ccc5[nH]4)cc3)cc2)CC1 | 4.72 |
| CCOc1cc(C)ccc1C1CCN(CCN2CCC(CNC(=O)c3ccc(-c4ccc(C(F)(F)F)cc4)cc3)CC2)CC1 | 8.11 |
| CC(=O)Nc1ccc([N+](=O)[O-])c2c(Br)cccc12 | 1.25 |
| COc1cc(OC)cc(C(=O)Nc2nc(-c3ccc(NC(=O)c4ccccc4)cc3)cs2)c1 | -0 |
| CCc1ccccc1N=C1c2c(cccc2[N+](=O)[O-])C(=O)C1C(C)=O (configuration not stated) | 2.17 |
| O=C(CCC1CCCC1)N(Cc1ccc(-c2ccc(CNCCc3ccccc3)cc2)cc1)C1CCCNC1 (configuration not stated) | 4.38 |
| N=C(N)NCC=C(c1ccccc1)c1ccccc1 | 2.96 |
| COc1cccc2cc(C(=O)N[C@@H](CC(C)C)C(=O)NC3CC[C@@H](C)N(C(=O)Nc4ccncc4)CC3=O)oc12 (some centres not stated) | 5.41 |
| O=c1cc(NCCCNCc2cccc3c2OC(F)(F)O3)[nH]c2ccccc12 | 1.45 |
| O=C(NCCc1ccccc1)N(Cc1ccccc1-c1cccc(CNC2CCCC2)c1)C1CCN(Cc2ccccc2)CC1 | 8.45 |
| COC(=O)c1ccc2nc(-c3ccc(/C=C/C(=O)NC4CCN(Cc5ccccc5)CC4)cc3)[nH]c2c1 | 2.27 |
| CCN1C(=O)N(CCC(C)C)C2(CCN(Cc3ccc(OC)cc3O)CC2)C1=O | 0 |
| Cn1c(N)c(C(=O)CSc2nnc(-c3cccs3)n2Cc2ccccc2)c(=O)n(C)c1=O | 0.87 |

| Structure (SMILES) | IFI [%] |
| --- | --- |
| CN(C)CCCc1cc(NC(=O)Nc2cccc(Cl)c2Cl)ccc1I | 2.9 |
| O=C(NCCCCN1CCC(c2c[nH]c3ccc(-c4ccccc4)cc23)CC1)c1ccc(-c2ccccc2)cc1 | 9.46 |
| Cc1nc(C)c(-c2ccc(S(=O)(=O)c3ccc(Cl)cc3)cc2)c(O)c1Br | 0 |
| O=C(NC1CC1)c1cnc(N2CCC(Cc3ccccc3)CC2)c(Cl)c1 | 9.52 |
| CC(=O)Nc1ccc2[nH]cc(C3CCN(CCC4CCN(C(=O)/C=C/c5ccc(Cl)c(Cl)c5)CC4)CC3)c2n1 | 2.13 |
| Cc1nc(-c2ccc(-c3ccc(C(=O)Nc4ccc(-n5ccnc5)c(N5CCN(C)CC5)c4)cc3)c(C)c2)no1 | 6.38 |
| CC(C)c1ccc(OCC(O)CN(CCN2CCOCC2)C(=O)Nc2ccc(Br)cc2)cc1 (configuration not stated) | 2.86 |
| CC(O)C1CCCCN1C(=O)c1ccc(-c2ccc(-c3nc4cc(F)ccc4[nH]3)cc2)cc1 (configuration not stated) | 5.66 |
| O=C(NC(NC(=S)Nc1ccc([N+](=O)[O-])cc1)C(Cl)(Cl)Cl)c1cccc(Cl)c1 (configuration not stated) | 15.8 |
| Cc1ccc(Cl)cc1N1CCN(CCCNC(=O)C2CCN(c3nc4ccccc4[nH]3)CC2)CC1 | 5.88 |
| COc1ccc2nc(-c3ccccc3)cc(N/N=C/c3ccc([N+](=O)[O-])o3)c2c1 | 7.35 |
| Cc1nc(C)n(CC(=O)Nc2cccc(-c3cccc(-c4nc5cc(C(F)(F)F)ccc5[nH]4)c3)c2)n1 | 14 |
| Cc1ccc(O)cc1Nc1ccnc2ccc(-c3csc(CNCCN4CCOCC4)n3)cc12 | 2.26 |
| O=C(c1ccc(F)c2ccccc12)N1CCc2cc3nccc(N4CCN5CCC[C@H]5C4)c3cc21 | 1.52 |
| CCc1cn2c3c(cc(C(=O)N[C@@H](Cc4cccc(F)c4)[C@H](O)CNC4CC4)cc13)N(C)S(=O)(=O)CC2 | 4.72 |
| Cc1nnsc1C(=O)Nc1cccc(-c2ccc(-c3nc4ccccc4[nH]3)cc2)c1 | 7.27 |
| CC(C)(C)CCN1CCC(NC(=O)c2ccc(-c3cccc(C(F)(F)F)c3)s2)CC1 | 15.8 |
| CC(C)c1ccc(NC(=O)N2CCc3ccc(OCCN(C(C)C)C(C)C)cc32)c(Br)c1 | 2.21 |
| CCCNC(=O)CN1CN(c2ccccc2)C2(CCN(C(=O)c3ccc(C(C)(C)C)cc3)CC2)C1=O | 3.33 |
| N#Cc1cccc(NC(=O)C2=C(CCc3ccc4c(c3)OCO4)NC(=O)NC2c2cccc(C#N)c2)c1 (configuration not stated) | 2.4 |
| Cc1ccc(CN2CCCCC(NC(=O)c3cc4ccccc4s3)C2)cc1 (configuration not stated) | 4.7 |
| CCN(CCCN1CCCCC1)c1cc(C)nc(Nc2ccc(Cl)c(C(F)(F)F)c2)n1 | 10.1 |

| Structure (SMILES) | IFI [%] |
| --- | --- |
| COc1cc(Cc2cnc(N)nc2N)ccc1OCc1ccc(-c2ccccc2C#N)cc1 | 9.8 |
| CCC1CCCCN1S(=O)(=O)c1ccc(NC(=O)c2cc(C)on2)cc1 (configuration not stated) | 7.5 |
| COc1ccc(C(=O)N2CCN(c3ccc([N+](=O)[O-])c(NC4CC4)c3)CC2)cc1Br | 2.86 |
| CCc1c[nH]c2c(N3CCCC3=O)cc(C(=O)N[C@@H](Cc3ccccc3)[C@H](O)CNC(C)(C)c3cccc(C(F)(F)F)c3)cc12 | 3.52 |
| Cc1cc(N2CCC(C)CC2)nc2cc(O)ccc12 | 0.98 |
| Cc1cc(NCCc2ccccc2)nc(NC(=N)Nc2ccccc2Cl)n1 | 6.9 |
| O=C(c1ccccc1)N1CCC[C@](CCCN2CCN(c3ccccc3O)CC2)(c2ccc(Cl)c(Cl)c2)C1 | 7.04 |
| Cc1cc(N(C)C)nc(Nc2ccc(NC(=O)CCc3ccccc3)cc2)n1 | 6.82 |
| COc1cc2nc(N3CCN(C(=O)c4c(Cl)nsc4-c4ccccc4Cl)CC3)nc(N)c2cc1OC | 7.76 |
| c1ccc(-c2cccnn2)cc1 | 0.73 |
| c1csc(-c2nc(N3CCCC3)ncc2-c2ccsc2)n1 | 7.95 |
| CC1CN(Cc2cccc(F)c2)CCN1c1ccc(NC(=O)c2ccc(F)cc2)cc1 (configuration not stated) | 0 |
| COc1ccccc1-c1cccc2c(NC(=O)Nc3ccc4nccc(N5CCN(C)CC5)c4c3)ccnc12 | 0.72 |
| CCOc1ccc2[nH]c(-c3ccccc3)cc(=NN=Cc3ccncc3)c2c1 | 2.16 |
| O=C(CCc1ccccc1)NC(c1ccc(Cl)cc1)c1ccc2cccnc2c1O (configuration not stated) | 7.48 |
| CCOC(=O)C1=C(C)NC2=C(C(=O)CC(C)(C)C2)C1c1ccc(Cl)cc1 (configuration not stated) | 0.74 |
| COc1cccc2c(N/N=C/c3cccc([N+](=O)[O-])c3)ccnc12 | 4.26 |
| Cc1cccc2nc(-c3cccc(-c4ccc(NC(=O)Nc5ccc(F)c(F)c5F)cc4)c3)[nH]c12 | 5.83 |
| CN(C)c1ccc(CN2CCCCC(NC(=O)c3cc(-c4ccccc4Cl)cs3)C2)cc1 (configuration not stated) | 3.64 |
| O=C(/C=C/c1ccc(Cl)cc1)NCCCCCN1CCCC(C(=O)Nc2ccc(Cl)cc2)C1 (configuration not stated) | 9.52 |
| CCOc1cc(C)ccc1C1CCN(CCCCNC(=O)c2ccc(NC(=O)c3cc(Cl)cc(Cl)c3)cc2)CC1 | 3.76 |
| CC(C)c1ccc(CN2CCCCC(NC(=O)c3cc(-c4ccccc4F)cs3)C2)cc1 (configuration not stated) | 0 |

| Structure (SMILES) | IFI [%] |
| --- | --- |
| Cc1nnsc1C(=O)Nc1cccc(-c2ccc(-c3nc4cc(F)ccc4[nH]3)cc2)c1 | 7.21 |
| CCCc1cn2c3c(cc(C(=O)N[C@@H](Cc4ccccc4)[C@H](O)CNC4CCCCC4)cc13)N(C)S(=O)(=O)CC2 | 5.47 |
| COc1cc(Cc2cnc(N)nc2N)c2c(c1OC)OC(C)(C)C=C2 | 0.7 |
| CN1c2ccc([N+](=O)[O-])cc2C(C)(C)C12C=Cc1cc(Br)cc([N+](=O)[O-])c1O2 (configuration not stated) | 0.75 |
| Oc1ccc2[nH]cc(C3CCN(CCC(c4ccccc4)c4ccccc4)CC3)c2c1 | 7.97 |
| O=S(=O)(NCCN1CCCC1)c1ccc(-c2ccc(CNC3Cc4ccccc4C3)cc2)cc1F | 10.5 |
| FC(F)(F)c1ccc2c(NCCNc3ccnc4cc(C(F)(F)F)ccc34)ccnc2c1 | 0 |
| COc1ccccc1-n1c(SCC(=O)Nc2ccccc2F)nc2cccnc21 | 1.46 |
| O=C(NCCN1CCOCC1)c1ccc(N2CCC(Oc3ccc4ccccc4c3)CC2)nc1 | -0 |
| CCN(CC)CCN(Cc1ccc(-c2ccc(C(F)(F)F)cc2)cc1)C(=O)Cn1c(CCc2cccc(F)c2F)nc(=O)c2cc(F)c(F)cc21 | 3.7 |
| Cc1cc(C)c2nc(N3CCC(C(=O)NCCCN4CCC(N5CCCCC5)CC4)CC3)sc2c1 | 12.5 |
| CC(C)(C)NCCN(Cc1ccc(-c2ccc(C(F)(F)F)cc2)cc1)C(=O)Cn1c(CCc2cccc(F)c2F)nc(=O)c2ccccc21 | 8.96 |
| CCc1cn2c3c(cc(C(=O)N[C@@H](Cc4ccccc4)[C@H](O)CNC4CCCCC4)cc13)N(CC)S(=O)(=O)CC2 | 2.14 |
| CN(CCC(O)c1ccc(Cl)c(Cl)c1)CC1CC1C(=O)c1ccccc1 (configuration not stated) | 3.67 |
| Cc1cc(S(=O)(=O)N2CCCCC(c3ccc(C(F)(F)F)cc3)=N2)c(Cl)cc1Cl | 2.19 |
| Cc1c(Br)cc2nc(-c3ccc(C(=O)NC4CCN(Cc5ccccc5)CC4)cc3)[nH]c2c1C | 2.22 |
| Fc1cccc(Nc2nc(NCc3ccc(OCc4ccccc4)cc3)nc(Nc3cccc(F)c3)n2)c1 | -0 |
| Cc1cccc2nc(-c3ccc(-c4cccc(C(=O)NCCc5cn(C)cn5)c4)s3)[nH]c12 | 7.55 |
| COc1ccc(OCCON)cc1 | -0 |
| COc1cc2c(c(Cl)c1OC)CCN(C(=O)C(F)(F)F)CC2c1ccccc1 (configuration not stated) | 0.81 |
| CN1CCN(CCCN(Cc2ccc(-c3cccc(CNCc4ccc5c(c4)OCO5)c3)cc2)C(=O)Nc2ccccc2)CC1 | 5.84 |
